The record followed here is the supplement of paper PMC11417369.

The list shows a part of the results.

This assay has as its system PfSIP2 AP2 domain 1 (GST-tagged). The assay is described as follows: gcPBM binding intensity (ln(normalized median fluorescence intensity)); higher = stronger DNA binding. The procedure, abridged:
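Binding of GST-tagged P. falciparum DNA-binding domains, expressed in E. coli and used at about 25 μg on average, was carried out for 1 h in 1× PBS containing 1% milk, 0.2 mg/ml BSA, 0.5% salmon testes DNA and 0.03% Triton X-100. The target was an Agilent 4 × 180k array of primer-extended double-stranded 36-bp intergenic genomic probes plus negative controls, read with Alexa488 anti-GST antibody at 488 nm. Binding intensity is the highest Masliner-normalised natural-log median intensity across replicate spots of either probe orientation.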
Turning to “TGTGATTATGATAAAAGTACAGAAATAAATATACTA [XGTACX_site38]”, the “gcPBM binding intensity (ln)” value stood at 6.99.

As to ATAAAAAGCTAAAAAGTGCAAAAAGTAAATATTTAA, the “gcPBM binding intensity (ln)” value was determined as 8.14.

In the case of “TTTTATAAAGAACACAGACACACAAAGAAAGAACCA [CACACA_site4174]”, the “gcPBM binding intensity (ln)” value worked out at 7.33.

Turning to “ACCAATTTGACAAACTGTACAAAAAAAATATTAAAA [XGTACX_site1186]”, the “gcPBM binding intensity (ln)” value turned out to be 6.99.

In the case of “TACACAAAAATAAACACACACACATATATATATATA [CACACA_site1000]”, the “gcPBM binding intensity (ln)” value amounted to 9.64.

As to “TATATATTCCTCCATAGTACAATAATAAAGATAAAA [XGTACX_site5785]”, the “gcPBM binding intensity (ln)” value came to 7.1.

“CTTTCCCTATATTGCTGTACATGTATTCAAAAAACA [XGTACX_site353]”: the “gcPBM binding intensity (ln)” value amounted to 7.46.

With “CGCGAACATACATACACACACATATATATATCTGTA [CACACA_site4277]”, the “gcPBM binding intensity (ln)” value stood at 6.9.

Regarding “AACACCCAAAAACACACACACATACATACATACATA [CACACA_site4411]”, the “gcPBM binding intensity (ln)” value was 7.34.

“AACATTAATTTCCTATGTACTTAATATATTGTTTTT [XGTACX_site4440]”: the “gcPBM binding intensity (ln)” value is 7.11.

“ATTTATATATATGTATGTACGTATGTGTGTATATGT [XGTACX_site7587]”: the “gcPBM binding intensity (ln)” value was found to be 7.73.

As to “AAATGTGTTAATGTGCGTACACATATATATAATATT [XGTACX_site2792]”, the “gcPBM binding intensity (ln)” value turned out to be 7.38.

Turning to “ATCACTAATTTTTTTACACACCACAATTTAATTTTT [CACACA_site1186]”, the “gcPBM binding intensity (ln)” value was found to be 7.17.

On to “AATATATACACATGCGCACACACAAGTGGGAAATTT [CACACA_site8527]”, for which the “gcPBM binding intensity (ln)” value is 7.3.

As to “TTTATATTTCATTTGTTATTTTTCTTGGTTCTATAT [TGCATGCA_negctrl_site23]”, the “gcPBM binding intensity (ln)” value was determined as 6.83.

As for “TTTTTTTTTTTTTTTTTTATATTTCATAATTTCATT [XGTACX_negctrl_site579]”, the “gcPBM binding intensity (ln)” value is 7.22.

Turning to “TCATTTAAGTCATATTGAAATATGCATTATTCAAAA [CACACA_negctrl_site958]”, the “gcPBM binding intensity (ln)” value was 6.72.

As to “TTTTGCCTGAACAATGCATGTTATTTTTATTTTTTT [TGCATGCA_site673]”, the “gcPBM binding intensity (ln)” value came out at 6.9.

For “AATATACGATTGTCATTCATACATTGTTAACATAGT [CACACA_negctrl_site1151]”, the “gcPBM binding intensity (ln)” value came to 6.99.

Consider “ATATACAGAAAAAATTAAAATAAATATGCAAAACAA [CACACA_negctrl_site704]”, for which the “gcPBM binding intensity (ln)” value came to 7.2.

As for “TACAATGAACATGAAACACACAAAAAAAAAAAAAAA [CACACA_site1544]”, the “gcPBM binding intensity (ln)” value worked out at 6.98.

“ACATAGTAAATATTATGTACATAATATATACATTTA [XGTACX_site7500]”: the “gcPBM binding intensity (ln)” value stood at 7.1.

Turning to “TACATATATATAATATATATATCATCATATTTTCTT [XGTACX_negctrl_site478]”, the “gcPBM binding intensity (ln)” value was found to be 6.82.

Regarding “CTTAAACTTTTAAATACACACATACAGACATACACA [CACACA_site6401]”, the “gcPBM binding intensity (ln)” value amounted to 7.12.

As for “TTTACTTTTTTTATATATTATTTATTATATAATATA [CACACA_negctrl_site211]”, the “gcPBM binding intensity (ln)” value turned out to be 6.96.

Take “TAAAAATGATCAAAGGGTACAGTATTAATTAAAAAA [XGTACX_site1079]”: the “gcPBM binding intensity (ln)” value is 7.

As for “TTTATTTATATAATTACACACATATATACTCAAATG [CACACA_site5543]”, the “gcPBM binding intensity (ln)” value was found to be 7.04.

In the case of “ATATGTACTATACGCACACACACTCACATATTTATA [CACACA_site7510]”, the “gcPBM binding intensity (ln)” value was 7.49.

As for “TTCTTAATTCATACCATCAAAACATTTATTCATATC [CACACA_negctrl_site43]”, the “gcPBM binding intensity (ln)” value is 6.99.

“ATAGGGTTTCTACTTTAACATTTTTGAAATATTATA [GTGCAC_negctrl_site260]”: the “gcPBM binding intensity (ln)” value was determined as 7.03.

Regarding “TATTATAAATAAATAGAAAAAAAAATGATAAATGGA [CACACA_negctrl_site865]”, the “gcPBM binding intensity (ln)” value worked out at 6.92.

On to “TATTTAGACATAACAAATAGACTAACAAAAGATTTA [GTGCAC_negctrl_site614]”, for which the “gcPBM binding intensity (ln)” value was found to be 6.78.

“ATAATAAATACACTAGTGCAAAATAATATATGTACT [GTGCAC_site9707]”: the “gcPBM binding intensity (ln)” value was 8.13.

Take “ATTACCATATTTTGTACACACATCTTTATCTCAATA [CACACA_site3217]”: the “gcPBM binding intensity (ln)” value turned out to be 7.23.

Consider “TAAAAATTAAAGTGTACACATATATATATATATATA [CACACA_site4781]”, for which the “gcPBM binding intensity (ln)” value worked out at 9.62.

As to “TTTTATGTTTATGTGGTGCATGTTTTGAAGAAAATA [GTGCAC_site9616]”, the “gcPBM binding intensity (ln)” value was found to be 10.3.

Regarding “TATAAACCGACGAAAACACACATATGTAAATATATA [CACACA_site491]”, the “gcPBM binding intensity (ln)” value is 7.12.

As for “AAACCTATGTATATTATACACACTCCAAACTATTAT [CACACA_site8536]”, the “gcPBM binding intensity (ln)” value is 6.98.

In the case of “CGGGGGTAGTTTTATGCACACGTTTATTAATGCTTC [CACACA_site5717]”, the “gcPBM binding intensity (ln)” value was found to be 8.1.

As to “ACATGAATATATACACGTACATATATACATATATAT [XGTACX_site5872]”, the “gcPBM binding intensity (ln)” value was 7.42.

Regarding “ACCAATAATATACATACACACATAAATGTTTATATA [CACACA_site4328]”, the “gcPBM binding intensity (ln)” value is 7.21.

As for TGAAAAACTATCAGAGTGCATATATAGCTCGATACA, the “gcPBM binding intensity (ln)” value was found to be 8.07.

With “TAAAATAATATATGGTGTACACAAAAGTATAAATAA [XGTACX_site4991]”, the “gcPBM binding intensity (ln)” value stood at 7.03.

With “ATATAAAAAAAATTTAGTACATATATATATATATAT [XGTACX_site8635]”, the “gcPBM binding intensity (ln)” value is 9.47.

With “AAAAAAATAATTAACACACACATGTATATCTATATA [CACACA_site3139]”, the “gcPBM binding intensity (ln)” value is 6.77.

For the sequence “TATATATATATATTATGTACTCATTTATTATCTTTT [XGTACX_site8051]”, the “gcPBM binding intensity (ln)” value was 9.5.

As to “ATATGATTTGGATGTAGTACATATTTTTTTATGTTT [XGTACX_site1929]”, the “gcPBM binding intensity (ln)” value was found to be 6.96.

Regarding “AACCAAATTTCACCATGTACATATTGATAAATATAT [XGTACX_site1374]”, the “gcPBM binding intensity (ln)” value is 7.14.

Regarding “GCACCAAAAAAAAGACGTACAGTTATATTAAAATAG [XGTACX_site8926]”, the “gcPBM binding intensity (ln)” value came to 7.89.

For “AAATGAACAAGTGGCACACACACATTCTAACTAATT [CACACA_site3203]”, the “gcPBM binding intensity (ln)” value came to 6.93.

In the case of “TGATTATCCTTCAGGAGTACATATAATATAATATAT [XGTACX_site1479]”, the “gcPBM binding intensity (ln)” value was 6.95.

As to “AATGAAAAGAAATAATAAATAAATGATGACCAGCTG [GTGCAC_negctrl_site398]”, the “gcPBM binding intensity (ln)” value worked out at 6.76.

“ATATATATATGAATCACACACAAAAAATATAGAGAT [CACACA_site3913]”: the “gcPBM binding intensity (ln)” value stood at 8.78.

Take “TTATAAAGAAAAAATTGCTTTAAAAGAAAGATTACA [CACACA_negctrl_site960]”: the “gcPBM binding intensity (ln)” value stood at 6.51.

For “AAAAACAAAATTTGGAGTACAGTTATAATATTATTA [XGTACX_site5245]”, the “gcPBM binding intensity (ln)” value was determined as 7.18.

On to “AATGAACAGACGAGCACACACACACCCATATATATA [CACACA_site1018]”, for which the “gcPBM binding intensity (ln)” value is 7.58.
